Laboratory results taken from the supplement of paper PMC10126150.
Values marked as one replicate rest on one cluster of the flow cell; about a third of the high ones do not repeat.

System: ATP
Test: switch fluorescence ratio, 500 uM ATP over buffer (Cy3 cluster intensity, sum of 5 cycles each) (fold (ratio)); higher = stronger signal-on switching upon ATP binding; sequences stand for … in TCGTCGGCAGCGTCAGATGTGTATAAGAGACAGTTTTTTTTTTTTTTTTTTTTTTTTT…TC
Details: aptamer strand: ATP DNA aptamer (quencher-CACCTGGGGGAGTATTGCGGAGGAAGG + anchor), 100 nM annealed; ATP concentration: 500 uM; one replicate
Outline: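 For every switch-domain sequence, the fluorescence ratio is the mean of per-cluster values, each being summed target-cycle Cy3 intensity over summed buffer-cycle Cy3 intensity. Clusters outside 100-1000 RFU were excluded. On a modified Illumina MiSeq flow-cell, the Cy3-labelled switching-strand clusters were annealed to 100 nM quencher-labelled ATP aptamer, imaged in selection buffer and then after 15 min with 500 uM ATP at 22 °C. Five such cycles were run, with NaOH stripping and re-annealing between them.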
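Note: ATP exposure 15 min at 22 °C before imaging.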

Sequence | switch fluorescence ratio
GATGGAGCTA | 0.995
GAGAGTAGGA | 1.01
TGTTGTTAGT | 1
GCCAGGTGGC | 1.26
TGAAAAAGCG | 0.965
CTTTGAGTG | 0.976
GACCCGAGG | 0.928
CAGTATACTC | 1.38
ACAGTTTC | 1.01
CAATGCCACT | 1.01
ATTATGTCGG | 1.02
TACAGATCTT | 0.968
GATCGGTATG | 0.986
CACCGGAACC | 1.78
GACGTCCTCT | 1.01
GGCAGATTTG | 0.991
TTTACGAGCT | 1.01
AACCAGTCGC | 1.06
GGCTCAGCTG | 1
ACGTGGGCGA | 1.02
CATGCTTCTA | 1.04
TGGTGTAGGG | 1.1
GAATTTATAA | 0.941

Sequence | switch fluorescence ratio
TGATTCTCCG | 1.09
GTGCAAGCAA | 1.06
ATAGAAGTGG | 1.09
GATCGAGCGG | 1.04
TACAACCCAC | 1.36
ATCATATCGC | 0.993
TACCAGGTCG | 1.14
TTAACAGGCG | 0.96
GGTGCAGCCG | 0.935
ATGTTATGGG | 1.01
ACTAGTGAA | 1.02
AGGGTTATCT | 1
TGTGAACGGT | 0.987
CTGATAATTC | 1.04
ATCGCAGCCT | 1.03
ATCCCGAATA | 1.08
TATGTCAAAC | 1.06
CGGCGGTGTA | 1.05
AGCTTTGTCA | 1.03
ACGAGTTAGA | 1.01
ATGGTTCAGT | 1.01
CGCGAGTCCA | 1.05
TGCAATCAT | 1.15

Sequence | switch fluorescence ratio
GAAAGTAGGT | 0.966
TAAAAGTCCT | 1.12
CGTACCTCGT | 0.98
TTCGTGAATG | 0.977
TGTGTCCGTA | 0.909
CCTGCGAGAT | 3.84
GATAGTACCG | 0.986
CTCCCGATTG | 1.35
TATTAACCTA | 1.04
GTGTTCATTA | 0.991
AGCCCCGCGA | 1.47
AAGCGTGGCA | 0.999
CTATCATGTA | 1.02
ATGTGGCCT | 0.936
AGCTAGTTTC | 1.02
TTAAGGACCA | 1.03
AATTCGATTC | 0.977
TCGAATGCGT | 1
GATACAGGGG | 1.18
TGTCGGAAGC | 0.96
GCGCATGGTG | 1.05
CACGGGTGAC | 1.14
CATAGTTCCA | 0.964

Sequence | switch fluorescence ratio
GAATCAGATG | 1
GTAGTTGTGC | 1.15
CTAGACAGTC | 1.05
ATTTCGGAAA | 0.999
TGTGGAGCAA | 3.76
TTAGAGATCA | 1.13
CATCGATACT | 1.21
AAAGGTTCGG | 0.97
TAGCATCAT | 0.949
GGAGGCGCGT | 1.02
CAGGCCAGGG | 1.03
CTGTCCTGTA | 1.01
CCTATCTTGT | 1.01
TGGCGCATCG | 0.995
AGGTAAATAG | 1.02
GTAGGGCTTA | 1.01
CAAGTCCTTA | 1.01
CATTCGATCA | 1
GAGCTTCGAT | 1.03
GAGAAAAATC | 1.01
GGAAGCATTT | 1.01
GATATGCTTA | 0.981
GCTTGATGGA | 1.01

Sequence | switch fluorescence ratio
TTAGTGAATA | 0.978
TCTGTGGATG | 0.958
ATAGTGATTG | 0.995
AACATTTCGC | 1.01
CTTAGGAGCT | 0.987
TACACAACCA | 1.17
AGAGCCCCTA | 1.01
GGAATTAGTT | 1
AGCGCCAAGG | 1.04
TTTCATGTTG | 1.01
CCTTCACTGC | 2.05
ACCAGTAGTA | 0.983
CTGAAAAAGT | 1.03
GCAGGCCTTC | 1.02
CGTGCGGACT | 0.993
CCCAAGGCCC | 1.03
AATCGTTGGA | 0.999
ATATTCTTTC | 1.02
ACTTTTCGCA | 1.03
CGGTATAAGA | 1.03
GAACGCACGG | 1.28
CTTCTGCTAT | 1.16
ATAGATGTCA | 0.999

Sequence | switch fluorescence ratio
TTATTTGAGA | 0.989
CGGAATATTC | 1.33
AATGGTGTCT | 0.957
TTAGCGCTCC | 1.61
ACTATTTAGT | 0.948
TTAGTTTACA | 1.05
AGGCTAGAAA | 1.03
CCTTGGCAAT | 4.92
TTATCTAGTC | 0.975
GGTCATAGCC | 1.02
CCGTGTGCGT | 1.04
TGTCCTTGTC | 0.986
ATCGCGTTG | 0.982
ATTCCAAGGG | 1.04
TCACAACT | 1.05
AATTTTGGCA | 0.996
GGTCAAGTAT | 0.973
TATATATCGG | 0.976
AATTCTATGG | 1.01
ATGAGCTTGA | 0.965
TAGTCTGTCG | 0.961
ACTTAATTAC | 1.1
TCGCACGTTG | 1.06

Sequence | switch fluorescence ratio
ACATGACCCG | 1.12
GTCTGATTGG | 0.966
TTGCGCTTAA | 1.05
GAGGCGTCTG | 1
ATTCGGGCGG | 0.958
CAAAACACTA | 1.04
AATTATGTT | 0.989
AAGGTATGG | 1.02
TATTAGCCCA | 1
TTTTCGAGTA | 0.987
CCCAAGGTC | 1.24
GCACTAAGTG | 1.01
CCTTCCCTTG | 1.48
TCCCCTAGGA | 1.08
TAGGCTCTCT | 1.02
CTGGATAAGT | 0.976
ATACATGGTA | 0.979
TCGAGAGACA | 1
ACTTTAGCCG | 1.11
